From the BET-seq Pho4 binding data (Le et al. 2018)
The list shows a part of the results. Values were computed here from the reads of four pooled replicates and scatter widely.

Target: T1, Pho4 (S. cerevisiae) (UniProt P07270)
T1 sequence: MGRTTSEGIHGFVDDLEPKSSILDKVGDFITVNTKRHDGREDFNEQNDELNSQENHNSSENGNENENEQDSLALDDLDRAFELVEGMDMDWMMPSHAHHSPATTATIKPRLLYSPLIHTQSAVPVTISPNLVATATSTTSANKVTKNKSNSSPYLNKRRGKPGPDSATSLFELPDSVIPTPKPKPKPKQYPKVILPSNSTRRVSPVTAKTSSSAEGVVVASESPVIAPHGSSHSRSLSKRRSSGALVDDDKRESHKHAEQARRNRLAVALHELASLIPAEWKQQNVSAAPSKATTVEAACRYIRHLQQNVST
Test: relative binding free energy (BET-seq); higher = weaker binding
Details: reference: library average

Row | Sequence | relative binding free energy
1 | TGGTACACGTGAAAAT | 0.29 kcal/mol
2 | TCGTACACGTGGGAGT | -0.1 kcal/mol
3 | GTTGTCACGTGAGAAA | 0.25 kcal/mol
4 | GGGGACACGTGTTGCT | -0.07 kcal/mol
5 | GGGATCACGTGGTGAA | 0.2 kcal/mol
6 | TGAGTCACGTGGGAGC | 0.11 kcal/mol
7 | ACGGTCACGTGTTGTG | 0.13 kcal/mol
8 | GGGTGCACGTGGAACT | 0.19 kcal/mol
9 | AAGTGCACGTGGGCCT | -0.17 kcal/mol
10 | GGGGCCACGTGGTCGG | -0.16 kcal/mol
11 | TTCTGCACGTGAAATG | 0.26 kcal/mol
12 | GTTGGCACGTGTGTAC | -0.16 kcal/mol
13 | ATAAACACGTGTTATT | -0.03 kcal/mol
14 | GGTGGCACGTGATTCT | 0.04 kcal/mol
15 | CGCGGCACGTGGGAAT | -0.03 kcal/mol
16 | CGTCTCACGTGTGTGA | 0.21 kcal/mol
17 | AGGGGCACGTGGTCAG | -0.15 kcal/mol
18 | GGATACACGTGTTAGT | 0.21 kcal/mol
19 | CGGTGCACGTGTGTCG | -0.15 kcal/mol
20 | AGTCTCACGTGGAAGG | 0.3 kcal/mol
21 | TTCGTCACGTGAAGTA | 0.23 kcal/mol
22 | CTGTGCACGTGGCATG | -0.23 kcal/mol
23 | TTGGACACGTGGAGAG | -0.14 kcal/mol
24 | TGTTTCACGTGATGTG | 0.29 kcal/mol
25 | TTGTGCACGTGGAGAG | 0.04 kcal/mol

Row | Sequence | relative binding free energy
26 | TATGTCACGTGAGATG | 0.36 kcal/mol
27 | TTCCTCACGTGTTTTG | 0.28 kcal/mol
28 | GGTAACACGTGGTTTA | -0.01 kcal/mol
29 | ATGGACACGTGGAATG | 0.13 kcal/mol
30 | TTTTGCACGTGAGTAT | 0.24 kcal/mol
31 | GGGAGCACGTGGGCGC | -0.27 kcal/mol
32 | GGGGCCACGTGGTGCC | -0.07 kcal/mol
33 | AGTAACACGTGTGGCT | 0.13 kcal/mol
34 | AACTTCACGTGTTTGG | 0.17 kcal/mol
35 | GGTGGCACGTGAGAGG | 0.24 kcal/mol
36 | GTCTTCACGTGTTGAA | 0.33 kcal/mol
37 | CGCATCACGTGGGTGT | 0.07 kcal/mol
38 | TTTACCACGTGTGCGT | 0.11 kcal/mol
39 | GAGTGCACGTGGGTAC | -0.13 kcal/mol
40 | GACGGCACGTGCGGGG | -0.07 kcal/mol
41 | GTAGGCACGTGAATGT | 0.23 kcal/mol
42 | ACTGTCACGTGATATG | 0.21 kcal/mol
43 | GTTACCACGTGTGGAG | 0.11 kcal/mol
44 | AGGGACACGTGTGATT | 0.11 kcal/mol
45 | TGACACACGTGTGGAT | 0.14 kcal/mol
46 | TGTGCCACGTGGGAAG | -0.17 kcal/mol
47 | TAAGGCACGTGTTGAT | -0.14 kcal/mol
48 | TTTGTCACGTGCTCTG | -0.11 kcal/mol
49 | GGTAACACGTGGTTCA | 0.1 kcal/mol
50 | TTGCGCACGTGGTCTG | -0.36 kcal/mol

Row | Sequence | relative binding free energy
51 | GGTTGCACGTGTCATA | 0.16 kcal/mol
52 | GGAGGCACGTGGTTCG | -0.08 kcal/mol
53 | AATTACACGTGGTAGA | 0.09 kcal/mol
54 | ATTTGCACGTGTTGCT | 0.06 kcal/mol
55 | GTGCTCACGTGGGTGT | 0.03 kcal/mol
56 | TCGGTCACGTGTGGTA | 0.09 kcal/mol
57 | ATAAGCACGTGTGTCG | -0.15 kcal/mol
58 | AATCGCACGTGTGGTG | 0.02 kcal/mol
59 | GTCGGCACGTGAGAGG | 0.19 kcal/mol
60 | TTCTGCACGTGAGTGA | 0.17 kcal/mol
61 | GAGGGCACGTGTTTGT | -0.08 kcal/mol
62 | CTTGTCACGTGGAGGG | -0.01 kcal/mol
63 | TATTACACGTGTTGCG | 0.13 kcal/mol
64 | TTGATCACGTGTGTAT | 0.18 kcal/mol
65 | TCATGCACGTGAAGGT | 0.2 kcal/mol
66 | TTAGTCACGTGTATTG | 0.06 kcal/mol
67 | GTATACACGTGGAAAT | 0.35 kcal/mol
68 | GTGATCACGTGTCGAG | 0.13 kcal/mol
69 | TGGAGCACGTGAAGAG | 0.2 kcal/mol
70 | TGAGCCACGTGTTGTT | -0.09 kcal/mol
71 | TCGCTCACGTGATGGT | 0.26 kcal/mol
72 | CTTGTCACGTGGGATT | -0.16 kcal/mol
73 | AGAGACACGTGGTATT | -0.06 kcal/mol
74 | TGGGGCACGTGCTTAG | -0.25 kcal/mol
75 | ATTCGCACGTGAAGGT | 0.23 kcal/mol

Row | Sequence | relative binding free energy
76 | GGATGCACGTGGGGAT | -0.06 kcal/mol
77 | ATTGTCACGTGAAGAT | 0.08 kcal/mol
78 | TGCTGCACGTGATGGG | 0.17 kcal/mol
79 | AGTGGCACGTGATACG | 0.06 kcal/mol
80 | TGTATCACGTGCTGGA | -0.07 kcal/mol
81 | GGAGTCACGTGGTGTC | 0.02 kcal/mol
82 | ATTGTCACGTGGGCTC | 0 kcal/mol
83 | ATTAGCACGTGTGCTG | -0.19 kcal/mol
84 | TGCTACACGTGTGGGC | 0.16 kcal/mol
85 | TTTTCCACGTGGAGGT | -0.06 kcal/mol
86 | GAGTGCACGTGCGTGC | -0.04 kcal/mol
87 | TGGTCCACGTGTTAGG | 0.08 kcal/mol
88 | GGTATCACGTGGGGTA | 0.07 kcal/mol
89 | TTCTACACGTGTGAGG | 0.18 kcal/mol
90 | TGGGCCACGTGTGAAA | 0.24 kcal/mol
91 | TGATTCACGTGAAGAG | 0.42 kcal/mol
92 | CTTAGCACGTGGCTGG | -0.23 kcal/mol
93 | TTAGGCACGTGAACAG | 0.14 kcal/mol
94 | AGGTTCACGTGGATCG | 0.26 kcal/mol
95 | AGTGGCACGTGAGAGC | 0.07 kcal/mol
96 | AGAGACACGTGGGCGG | -0.1 kcal/mol
97 | CATGTCACGTGTTGGG | 0.04 kcal/mol
98 | TGGCACACGTGGTAAG | 0.03 kcal/mol
99 | GTTTTCACGTGCCAGT | 0.51 kcal/mol
100 | TAAGGCACGTGGGGTT | -0.22 kcal/mol

Row | Sequence | relative binding free energy
101 | GTTGCCACGTGGGGGT | -0.25 kcal/mol
102 | ACTAGCACGTGTGTGT | 0.02 kcal/mol
103 | TGTGTCACGTGACGCG | 0.08 kcal/mol
104 | GTTGTCACGTGAGAGA | 0.32 kcal/mol
105 | GATGGCACGTGATGAT | 0.01 kcal/mol
106 | CTTTGCACGTGGGAGT | -0.03 kcal/mol
107 | GATGTCACGTGGGAGG | 0.07 kcal/mol
108 | CGGGTCACGTGTGAAG | 0.21 kcal/mol
109 | TGTGGCACGTGCCGGA | -0.22 kcal/mol
110 | AGTTACACGTGTTGGC | 0.13 kcal/mol
111 | TGAGGCACGTGAAAAG | 0.19 kcal/mol
112 | TTAACCACGTGGTTTT | -0.12 kcal/mol
113 | TACTTCACGTGGGGTA | 0.03 kcal/mol
114 | TTTTGCACGTGGCTAA | -0.1 kcal/mol
115 | GTTGTCACGTGTTTTC | 0.18 kcal/mol
116 | AGAATCACGTGCGGTT | 0 kcal/mol
117 | TCGGACACGTGTCGGG | -0.01 kcal/mol
118 | AGTTGCACGTGAGTGC | 0.19 kcal/mol
119 | GGCGGCACGTGCAGTT | -0.01 kcal/mol
120 | TTAATCACGTGTTTTG | 0.05 kcal/mol
121 | ATCTTCACGTGGGTTG | 0.03 kcal/mol
122 | ACTTTCACGTGTAGAT | 0.35 kcal/mol
123 | TGTGACACGTGTCTGC | 0.08 kcal/mol
124 | AGGACCACGTGTGGTT | -0.04 kcal/mol
125 | GTGATCACGTGGGCGC | 0.08 kcal/mol

Row | Sequence | relative binding free energy
126 | GTTTTCACGTGCAGTA | 0.22 kcal/mol
127 | AAAGTCACGTGATGTG | 0.19 kcal/mol
128 | CTGGGCACGTGAGATG | 0.15 kcal/mol
129 | AGGTGCACGTGTTTTG | -0.04 kcal/mol
130 | GGATGCACGTGAAGAG | 0.42 kcal/mol
131 | TAATGCACGTGGCAGG | -0.02 kcal/mol
132 | GGCATCACGTGTGGGT | 0.32 kcal/mol
133 | ACGGTCACGTGTAGGC | 0.09 kcal/mol
134 | GCTTACACGTGTGATT | 0.38 kcal/mol
135 | AAATGCACGTGGATGG | -0.08 kcal/mol
136 | GGTGGCACGTGCTGTC | -0.08 kcal/mol
137 | CATGTCACGTGGGTGC | 0.08 kcal/mol
138 | TAGTTCACGTGGAGCT | 0.29 kcal/mol
139 | GAGTTCACGTGAAATA | 0.56 kcal/mol
140 | ATTGACACGTGGGCTT | -0.11 kcal/mol
141 | TGTTACACGTGATTAA | 0.14 kcal/mol
142 | AAGTGCACGTGATGGA | 0.17 kcal/mol
143 | TTGAGCACGTGTAACT | 0.12 kcal/mol
144 | GTTTCCACGTGTGCGG | 0.05 kcal/mol
145 | GGTATCACGTGTTCAG | 0.08 kcal/mol
146 | TTTACCACGTGTGTAT | -0.02 kcal/mol
